Measurements from PubChem BioAssay AID493208 (National Center for Advancing Translational Sciences (NCATS), 2011).
Out of some 44,000 compounds screened, about 340 (0.77%) were called active. Inconclusive results (about 5%) are left out. Calls come from the whole dose curve; as a rule, active = well fitted inhibition curve with a large enough effect; inconclusive = small, poorly fitted or top-dose-only effect; inactive = flat fitted curve, though single readings scatter. This is one part of the list.

test: Acumen qHTS Assay for Inhibitors of the mTORC1 Signaling Pathway in MEF (Tsc2-/-, p53-/-) Cells: Sytravon; settings: phospho-rpS6 immunofluorescence/PI, 24 h; series mostly up to 38.3 µM; activity change, negative = inhibition: at the top concentration;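 note: plate controls were DMSO for no effect and rapamycin for full effect; nearly all actives have a fitted effect of over 50% in size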
In short: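 Tsc2-/-, p53-/- MEFs (empty-vector stable line) in DMEM + 10% FBS were treated with compounds 24 h at 37 degree Celsius, fixed, and immunostained for phospho-rpS6 (Alexa-488) with propidium iodide counterstain. Laser-scanning cytometry gave % positive cells, normalized against 7.5 nM rapamycin and DMSO.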

Activity change, negative = inhibition, inactive:
Cc1ccc(-c2nnc(Nc3ccc(Br)cc3)c3ccccc23)cc1S(=O)(=O)NCc1nc2ccccc2[nH]1 -3.83%, CCCN(CCC)C(=O)C1CCCN(c2ncnc3c2nc2n3CCCCC2)C1 (stereo unspecified) -5.53%, Cc1ccccc1CNC(=O)c1ccc(CN2CC(=O)N3CCCCC3C2=O)cc1 (stereo unspecified) -9.91%, CCc1nnc2c3ccccc3nc(N3CCN(c4cc(C)ccc4C)CC3)n12 3.75%, COc1ccc(CNC(=O)C(=O)Nc2cc(Cl)ccc2OC)cc1 0.623%, Cc1ccccc1CN1C(=O)c2ccccc2S(=O)c2ccc(C(=O)NCc3ccc4c(c3)OCO4)cc21 (stereo unspecified) 0.385%, COc1cccc(CNC(=O)CCC(=O)N2CC(C)Sc3ccccc32)c1 (stereo unspecified) 3.61%, CC(=O)Nc1cc(C(=O)Nc2ccc3c(c2)N(C)C(=O)c2ccccc2S3)ccc1C -17.7%, COc1ccc(N2CCN(S(=O)(=O)CCNC(=O)c3c(F)cccc3Cl)CC2)cc1 0.535%, Cc1ccc(S(=O)(=O)c2nnn3c2nc(N2CCC(C(N)=O)CC2)c2cc(Cl)ccc23)cc1C 0.795%, Cc1ccc(NS(=O)(=O)c2c(C)nc3sc(C)cn3c2=O)c(C)c1 -0.619%, Cc1nc2c(c(C)nn2C(C)(C)C)c(C)c1CCC(=O)Nc1ccc(Br)cc1Br 0.465%, CCC(=O)Nc1cc2nn(-c3ccc(C)cc3)nc2cc1C 8.06%, Cc1ccc(NC(=O)[C@@H](c2ccccc2)N2Cc3ccccc3C2=O)cc1F -17.4%, CCCc1nn2c(=O)cc(COC(=O)c3ccco3)nc2s1 -20.5%, COc1ccc(CCNC(=O)Cn2c(=O)c3cccn3c3ccccc32)cc1OC -1.22%, Cc1c(C(=O)NCc2ccc(F)cc2)sc2nc(-c3ccc(F)cc3)cn12 -0.522%, CCCCOc1ccccc1C1CC(=O)Nc2cc(OC)c(OC)cc21 (stereo unspecified) 0.37%, CC(=O)Nc1c(C)nn(-c2ccccc2)c1N1CCC(C(=O)Nc2cccc(C(F)(F)F)c2)CC1 4.47%, CCOC(=O)Cn1c(=O)n(CC2CCCO2)c2nc(-c3ccc(CC)cc3)nc(C(N)=O)c21 (stereo unspecified) 2.78%, O=C(CSc1ncc2c(n1)-c1ccc(Cl)cc1N(Cc1ccccc1)S2(=O)=O)Nc1ccccc1C(F)(F)F 1.65%, Cc1cc(C)cc(N(CC(=O)NCc2ccccc2Cl)S(=O)(=O)c2c(C)[nH]c(=O)[nH]c2=O)c1 2.25%, CCOc1ccc(NC(=O)CN2CCSc3ccc(S(=O)(=O)N4CCCC4)cc32)cc1 -12.7%, CCn1cc(S(=O)(=O)c2ccc(C)cc2C)c(=O)c2cc(F)c(N3CCCCC3)cc21 -1.81%, CCN(CC)c1cc2c(cc1F)c(=O)c(S(=O)(=O)c1ccccc1)cn2C 1.92%, COC(=O)c1c(NC(=O)/C=C/c2ccc(OC)c(OC)c2)sc2c1CCC2 10.6%, Cc1noc(Cn2c(=O)c3ccccc3n(CC(=O)Nc3ccc(C(C)C)cc3)c2=O)n1 -7.25%, CCN(CC)CCCNC(=O)CN1C(=O)COc2ccc(S(=O)(=O)N3CCC(C)CC3)cc21 -0.644%, CC(Nc1oc(-c2ccc(COc3ccc(Cl)cc3)o2)nc1C#N)c1ccccc1 (stereo unspecified) -19.2%, COCCNC(=O)CSc1nnc2[nH]c(=O)cc(C)n12 -0.705%, O=C(NCc1ccccc1)c1ccc2c(c1)nc1n2CCOC1 0.456%, CCN(CC)c1ccc(NC(=O)CN2C(=O)c3cccnc3Oc3ccc(Cl)cc32)c(C)c1 -1.85%, CCc1ccccc1NS(=O)(=O)c1cc(Br)cc2c1N(C(=O)C1CC1)CC2 -1.12%, CCc1cccc(NS(=O)(=O)c2cc(-c3cnc(C)o3)ccc2OC)c1 10.5%, CCOC(=O)Cn1c(=O)n(CC2CCCO2)c2nc(-c3c(F)cccc3Cl)nc(C(N)=O)c21 (stereo unspecified) -0.736%, CCn1c(=O)c2sccc2n2c(CCCC(=O)Nc3ccc(OC)c(OC)c3)nnc12 -3.55%, COc1ccc(C(=O)Nc2nc3n(n2)C(c2ccc(F)cc2)C=C(c2ccc(Cl)cc2)N3)cc1 (stereo unspecified) 0.45%, CCOC(=O)c1ccc(NC(=O)c2cc3c([nH]c2=O)CC(c2ccccc2)CC3=O)cc1 (stereo unspecified) 7%, Cc1c(C(=O)N(C)C)sc2c1c(=O)n(-c1ccc(Cl)c(Cl)c1)c(=O)n2CC(=O)Nc1ccc(Br)cc1F -0.0216%, CCCCC1CCC(CCCC(C)CCC(=O)O)CC1 (stereo unspecified) 9.45%, COc1ccc(-n2cc(-c3ccc4c(c3)OCO4)n(CC(=O)Nc3cccc(C)c3)c2=O)cc1 2.08%, Cc1cccc(NC(=O)Cn2cc(S(=O)(=O)Cc3ccccc3Cl)c3ccccc32)c1 3.26%, O=C(CC1N=C2c3ccccc3N=C(SCC(=O)Nc3ccc(F)cc3)N2C1=O)NCc1ccc2c(c1)OCO2 (stereo unspecified) -2.76%, CSc1ncc(Cl)c(C(=O)N(Cc2ccc(C(C)C)cc2)C2CCS(=O)(=O)C2)n1 (stereo unspecified) -1.42%, Cc1ccccc1Cn1c(SCc2ccc(C(=O)NCCc3ccccc3)cc2)nc2ccncc21 -0.498%, Cc1cc(C)n(C(C)CC(=O)Nc2ccc(C)c(F)c2)n1 (stereo unspecified) 12.5%
